About 14,000 (4.5%) of roughly 310,000 compounds showed an effect of 50% or more. The effect is printed as a negative number. The list shows a part of the results.
Each molecule was assayed against human ether-à-go-go-related gene (hERG) potassium channel (human, UniProt Q12809) (assay: primary screen, population patch clamp on CHO cells stably expressing hERG).
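Further: peak tail current of the secondary pulse compared with the same well before compound.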

Chain of human ether-à-go-go-related gene (hERG) potassium channel (Q12809 whole entry, looked up): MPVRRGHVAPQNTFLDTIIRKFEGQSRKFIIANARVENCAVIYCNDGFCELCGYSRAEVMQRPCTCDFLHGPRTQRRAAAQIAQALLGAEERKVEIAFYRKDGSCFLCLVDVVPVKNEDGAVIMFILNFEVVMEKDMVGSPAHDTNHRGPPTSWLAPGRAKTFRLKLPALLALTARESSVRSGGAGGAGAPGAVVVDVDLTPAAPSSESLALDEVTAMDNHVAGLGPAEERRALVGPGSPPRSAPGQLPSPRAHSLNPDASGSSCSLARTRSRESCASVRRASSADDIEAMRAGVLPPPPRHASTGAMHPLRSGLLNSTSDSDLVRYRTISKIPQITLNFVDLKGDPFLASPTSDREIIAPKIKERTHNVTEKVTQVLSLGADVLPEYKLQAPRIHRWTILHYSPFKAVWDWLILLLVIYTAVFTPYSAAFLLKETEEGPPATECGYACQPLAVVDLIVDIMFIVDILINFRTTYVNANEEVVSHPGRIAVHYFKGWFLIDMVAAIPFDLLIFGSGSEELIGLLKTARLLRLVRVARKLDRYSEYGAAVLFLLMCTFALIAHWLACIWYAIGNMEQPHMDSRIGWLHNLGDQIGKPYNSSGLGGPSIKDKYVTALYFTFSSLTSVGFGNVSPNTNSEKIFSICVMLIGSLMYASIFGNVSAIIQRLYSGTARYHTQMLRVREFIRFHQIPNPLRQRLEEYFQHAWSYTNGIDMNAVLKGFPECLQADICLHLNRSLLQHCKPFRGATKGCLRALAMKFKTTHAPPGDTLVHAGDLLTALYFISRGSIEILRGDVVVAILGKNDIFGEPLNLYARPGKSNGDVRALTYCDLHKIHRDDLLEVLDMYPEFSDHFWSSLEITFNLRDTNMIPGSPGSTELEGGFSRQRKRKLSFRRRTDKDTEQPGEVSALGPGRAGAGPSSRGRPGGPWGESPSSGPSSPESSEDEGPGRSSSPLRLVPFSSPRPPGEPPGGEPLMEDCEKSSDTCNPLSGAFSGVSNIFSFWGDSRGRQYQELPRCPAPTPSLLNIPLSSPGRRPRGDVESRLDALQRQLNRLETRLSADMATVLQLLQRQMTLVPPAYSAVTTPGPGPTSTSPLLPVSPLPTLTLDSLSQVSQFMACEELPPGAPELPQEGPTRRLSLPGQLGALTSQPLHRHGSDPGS

| SMILES | hERG current change (%, negative = inhibition) at 10uM |
| --- | --- |
| O=C(NCc1ccc2c(c1)OCO2)C1CCC(CNS(=O)(=O)c2ccc(Cl)cc2)CC1 (stereo not drawn) | -6.18% |
| COc1cc2c(cc1OC)-c1c(OC)c(OC)cc3c1[C@H](C2)[N+](C)(C)CC3.[I-] | -2.09% |
| CCn1c(C)cc(C(=O)CN2C(=O)c3ccccc3S2(=O)=O)c1C | 14% |
| CSCCC(NS(=O)(=O)c1cc(C(=O)O)ccc1Cl)C(=O)O (stereo not drawn) | 45% |
| COc1ccc(/C=N/NC(=O)c2cc(C34CC5CC(CC(C5)C3)C4)[nH]n2)cc1OC | -1.14% |
| COc1ccccc1OCC(=O)Nc1nc(-c2ccc(S(=O)(=O)N3CCOCC3)cc2)cs1 | 16.5% |
| COc1cccc(C(=O)CSc2nnc(-c3cc(OC)cc(OC)c3)o2)c1 | -8.99% |
| N#Cc1c(Oc2ccc3ccccc3c2)sc(C(=O)c2ccccc2)c1N | 11.1% |
| CCC1COCCS(=O)(=O)N1Cc1ccc(Cl)cc1 (stereo not drawn) | -8.92% |
| Cc1ccc(C(=O)N2CCN(c3ccccn3)CC2)cc1 | -14.3% |
| CCc1ccc(CNCCc2ccc(F)cc2)cc1 | -72.8% |
| CCCCC1=NN2CCS(=O)(=O)N=C2S1 | 8.61% |
| CC(C)CC(NC(=O)c1ccccc1)C(=O)N/N=C/c1ccco1 (stereo not drawn) | -2.87% |
| COCCn1c(SCC(=O)Nc2cc(OC)ccc2OC)nc2c(c1=O)SC(C)C2 (stereo not drawn) | -18.5% |
| O=C(COC(=O)Cc1ccc(F)cc1)NC(=O)c1ccccc1 | 5.1% |
| COc1ccc(/C=C2\Oc3cc(OCC(=O)N4CC(O)C[C@H]4C(=O)O)ccc3C2=O)cc1OC (stereo partly drawn) | 6.83% |
| O=C(O)c1cc([N+](=O)[O-])c(Nc2cccc3ccccc23)c([N+](=O)[O-])c1 | 3.66% |
| CC1CCCCN1C(=O)Cn1c(=O)n(C2CCCCC2)c(=O)c2ccccc21 (stereo not drawn) | -7.29% |
| COC(=O)Oc1nsnc1N1CCOCC1 | 14.9% |
| S=C(NCc1ccccc1)NNc1ccccc1 | 4.63% |
| CCCCc1cc(=O)oc2cc(C)cc(OCC(=O)Nc3cccnc3)c12 | 26.7% |
| C/C=C(\C)C(=O)N[C@@H](c1ccccc1)[C@@H](O)C(=O)O[C@H]1C[C@@]2(O)[C@@H](OC(=O)c3ccccc3)C3[C@](C)(C(=O)[C@H](OC(C)=O)C(=C1C)C2(C)C)[C@@H](O)C[C@H]1OC[C@@]31OC(C)=O (stereo partly drawn) | -5.14% |
| COc1ccc(OC)c(N(CC(=O)NCCSC2CCCCC2)S(=O)(=O)c2ccccc2)c1 | 16% |
| O=C(O)Cc1coc2ccc3ccccc3c12 | 6.44% |
| CS(=O)(=O)N1CCc2ccccc2C1 | 0.516% |
| CCOCCCNC(=O)c1ccc2c(=O)n(CCCOCC)c(=S)[nH]c2c1 | 2.91% |
| COc1ccc2cc1Oc1ccc(cc1)C[C@H]1c3cc(c(OC)cc3CCN1C)Oc1c(OC)c(OC)cc3c1[C@H](C2)N(C)CC3 | -37.4% |

| SMILES | hERG current change (%, negative = inhibition) at 10uM |
| --- | --- |
| COc1ccc(N(CC(=O)NCCc2ccc(S(N)(=O)=O)cc2)S(=O)(=O)c2c(C)noc2C)cc1 | 10.6% |
| CCCc1c(C)[nH]c2nc3ccccc3n2c1=O | 12.4% |
| CCN(CC(=O)NCc1cccs1)C(=O)c1ccc(S(=O)(=O)N(CC)c2ccccc2)cc1 | -61.4% |
| Cc1ccc(NC(=O)c2cc3c(s2)CCC3)cc1S(=O)(=O)N1CCOCC1 | 9.28% |
| COc1ccc(Oc2nnnn2-c2ccccc2)cc1 | -16.6% |
| COc1cc(/C=C/C(=O)O)cc(S(=O)(=O)N2CCCc3ccccc32)c1OC | 10.7% |
| Cc1ccccc1NC(=O)C1CCN(C(=O)N2CCOc3ccccc32)CC1 | -8.57% |
| CCCCCCCCCc1nc2sc3c(c2c(=O)n1NC(=O)c1ccc([N+](=O)[O-])cc1)CC(C)(C)OC3 | -35.9% |
| Cc1ccc(C(C)C)cc1S(=O)(=O)NCc1ccccn1 | 2.86% |
| C=CCSC1=N/C(=C\c2sccc2C)C(=O)S1 | -1.99% |
| Cc1ccc(-c2c(C(=O)N(C)Cc3ccccc3)oc(=O)c3ccccc23)cc1 | -52.5% |
| CCCCN(CC)CCCNC(=O)c1cn(CC(C)C)c(=O)c2c1c1ccccc1n2C | -34.5% |
| Cc1nnc(SCC(=O)c2ccc(Cl)cc2)n(N)c1=O | 1.4% |
| CCOc1cc2c(cc1OCC)-n1cccc1C(c1cc(OC)ccc1F)NC2.Cl (stereo not drawn) | -0.962% |
| O=C(Cc1ccccc1)N1CCN(c2ncccn2)CC1 | 1.36% |
| CCCCN(C(=O)C1=COCCO1)c1c(N)n(Cc2ccccc2)c(=O)[nH]c1=O | 8.72% |
| Cc1nc2nc[nH]n2c(=O)c1NS(C)(=O)=O | 4.48% |
| Cn1cnnc1SCC(=O)N1N=C2/C(=C/c3ccco3)CCCC2C1c1ccco1 (stereo not drawn) | -25.6% |
| Cc1ccc(C(=O)OCc2ccc3c(c2)OCO3)cc1S(=O)(=O)N1CCCCC1 | 5.84% |
| CC(=O)Nc1ccc(NC(=O)c2ccc(COc3ccccc3)cc2)cc1 | -2.88% |
| CSc1ncc(Cl)c(C(=O)Nc2cccc3ccccc23)n1 | 5.27% |
| COC(=O)c1ccc(CNCC(O)COc2ccc(-c3ccccc3)cc2)cc1 (stereo not drawn) | 13.1% |
| O=C(COc1ccc([N+](=O)[O-])cc1Cl)NCC1CCCO1 (stereo not drawn) | -14.9% |
| CC(NC=C1C(=O)OC(C)(C)OC1=O)C(=O)O (stereo not drawn) | 12.1% |
| COc1cc(C(=O)Nc2c(C(=O)O)[nH]c3ccccc23)cc(OC)c1OC | 16.2% |
| COc1ccc(-c2cc(C(N)=O)nc(N3CCCCCC3)n2)cc1 | 14.7% |
| CCNc1nc(C)c2cc(Br)c(=O)n(CC)c2n1 | 17.1% |

From article PMC4336329 (PLoS ONE, 2015)
